# Data: PubChem BioAssay (Tox21)
# Inconclusive means that the source gave no clear call. Such entries were picked first, then a sample of the others. For some assays here: Potencies of inconclusive entries are left out as doubtful fits. The source made the active and inactive calls. Unless noted, calls follow the shape of the dose curve; as a rule, active = well fitted curve in the direction sought with a large enough effect in the repeat runs; inconclusive = weak or mixed curves; inactive = no such curve, though single readings can be large; an effect the other way counts as inactive or inconclusive.
# Experiments:
# [1] = A CellTox Green Cytotoxicity Assay to monitor cytotoxicity in HepG2 cells - 16 hour (AID 1224876); also: nearly all actives have a fitted effect of over 45% in size; also: potency is read from the fitted curve at half-maximal effect
# Outline: (§1)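 Using 1536-well format, dye-containing HepG2 suspension was seeded, allowed 5 h at 37 C/5% CO2, dosed by pintool with compounds, positive and negative controls, and imaged for fluorescence across 40 h.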
# [2] = qHTS assay for small molecule disruptors of the mitochondrial membrane potential - cell viability (AID 720634; calls by dose curve; also: nearly all actives have a fitted effect of over 20% in size; also: potency is read from the fitted curve at half-maximal effect)
# Outline: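 HepG2, 1 hr compound, 37 C. ATP luminescence via CellTiter-Glo, 30 min RT, same well as m-MPI.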
# [3] = biological target: Glucocorticoid receptor (Homo sapiens) (UniProt P04150); test: qHTS assay to identify small molecule agonists of the glucocorticoid receptor (GR) signaling pathway (AID 720691; active = well fitted activation curve with a large enough effect in the signal ratio in the repeat runs, not every such curve was filed as active; inconclusive = weak or mixed curves, or effect the other way; inactive = no such curve, though single readings can be large or run the other way; the % refers to the signal ratio; also: potency is read from the fitted curve at half-maximal effect); conditions: GR-bla HeLa, beta-lactamase reporter ratio, 18 h; activation: at 62.4 µM (top of the series) unless noted
# Chain of UniProt P04150 (P04150 whole entry, looked up): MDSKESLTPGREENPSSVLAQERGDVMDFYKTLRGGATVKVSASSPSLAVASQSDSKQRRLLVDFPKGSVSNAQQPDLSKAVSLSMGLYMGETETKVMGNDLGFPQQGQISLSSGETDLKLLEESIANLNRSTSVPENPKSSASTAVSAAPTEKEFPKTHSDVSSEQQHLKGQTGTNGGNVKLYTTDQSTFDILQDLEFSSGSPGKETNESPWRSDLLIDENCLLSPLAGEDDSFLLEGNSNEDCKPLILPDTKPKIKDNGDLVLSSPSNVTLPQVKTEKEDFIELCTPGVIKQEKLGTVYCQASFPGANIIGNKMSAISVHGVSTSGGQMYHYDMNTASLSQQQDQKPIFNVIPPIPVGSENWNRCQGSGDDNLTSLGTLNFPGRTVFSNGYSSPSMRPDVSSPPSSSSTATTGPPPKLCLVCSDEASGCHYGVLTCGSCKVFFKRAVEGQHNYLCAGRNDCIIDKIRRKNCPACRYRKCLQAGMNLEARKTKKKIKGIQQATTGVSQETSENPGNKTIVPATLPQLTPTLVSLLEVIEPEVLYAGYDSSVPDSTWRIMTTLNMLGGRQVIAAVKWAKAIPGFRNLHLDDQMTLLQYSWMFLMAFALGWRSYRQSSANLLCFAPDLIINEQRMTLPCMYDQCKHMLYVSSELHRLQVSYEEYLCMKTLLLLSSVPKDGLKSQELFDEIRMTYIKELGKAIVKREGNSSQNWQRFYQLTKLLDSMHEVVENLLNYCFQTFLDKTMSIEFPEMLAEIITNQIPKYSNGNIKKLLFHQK
# Outline: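 qHTS in GR-bla HeLa cells: 4 h settling at 37 C/5% CO2, 18 h compound incubation at 37 C, 2 h LiveBLAzer B/G FRET substrate at room temperature, fluorescence intensity measured.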
# Aromatase (Homo sapiens) = Aromatase (Homo sapiens) (UniProt P11511); test: qHTS assay to identify aromatase inhibitors (AID 743083); also: nearly all actives have a fitted effect of over 55% in size; also: potency is read from the fitted curve at half-maximal effect
# Chain of UniProt P11511 (P11511 whole entry, looked up): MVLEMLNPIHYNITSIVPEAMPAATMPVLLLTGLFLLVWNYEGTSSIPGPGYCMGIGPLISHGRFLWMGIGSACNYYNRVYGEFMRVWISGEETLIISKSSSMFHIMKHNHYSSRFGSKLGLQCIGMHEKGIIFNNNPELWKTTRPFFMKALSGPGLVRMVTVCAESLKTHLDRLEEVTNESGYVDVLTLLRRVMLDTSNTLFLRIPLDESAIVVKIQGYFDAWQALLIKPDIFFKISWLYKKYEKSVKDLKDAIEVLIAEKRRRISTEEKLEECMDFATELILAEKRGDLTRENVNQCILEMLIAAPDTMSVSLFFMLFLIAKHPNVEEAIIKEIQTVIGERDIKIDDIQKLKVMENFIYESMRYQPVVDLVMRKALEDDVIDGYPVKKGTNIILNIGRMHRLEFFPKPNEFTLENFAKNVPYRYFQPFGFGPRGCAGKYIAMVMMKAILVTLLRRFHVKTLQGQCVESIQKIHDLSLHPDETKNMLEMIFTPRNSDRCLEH
# [4] = A CellTox Green Cytotoxicity Assay to monitor cytotoxicity in HEK293 cells - 40 hour (AID 1224871); also: potency is read from the fitted curve at half-maximal effect; nearly all actives have a fitted effect of over 45% in size
# Outline: (§2)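 Fluorescence intensity, read at 0, 8, 16, 24, 32 and 40 h of compound treatment, reflected dye binding to DNA of dead HEK293 cells; compounds (23 nL, DMSO) were added 5 h after plating cells with reagent.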
# [5] = A CellTox Green Cytotoxicity Assay to monitor cytotoxicity in HEK293 cells - 8 hour (AID 1224884); also: nearly all actives have a fitted effect of over 35% in size; also: potency is read from the fitted curve at half-maximal effect
# Outline: as §2
# [6] = qHTS assay to identify small molecule antagonists of the constitutive androstane receptor (CAR) signaling pathway - cell viability counter screen (AID 1224837); also: % is scaled to controls: 0 for no effect and ±100 for the full control effect; nearly all actives have a fitted effect of over 45% in size
# Outline: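 Counter screen run in HepG2-CYP2B6-hCAR cells: 4 hr settle, compound titration (15 concentrations) with 50 nM CITCO, 23 hr at 37 C/5% CO2, CellTiter-Fluor fluorescence.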
# [7] = biological target: Nuclear receptor subfamily 1 group I member 3 (Homo sapiens) (UniProt Q14994); test: qHTS assay to identify small molecule antagonists of the constitutive androstane receptor (CAR) signaling pathway (AID 1224838);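 also: HepG2 cells stably expressing hCAR with CYP2B6 luciferase reporter stimulated by CITCO; nearly all actives have a fitted effect of over 40% in size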; also: potency is read from the fitted curve at half-maximal effect
# Chain of UniProt Q14994 (Q14994 whole entry, looked up): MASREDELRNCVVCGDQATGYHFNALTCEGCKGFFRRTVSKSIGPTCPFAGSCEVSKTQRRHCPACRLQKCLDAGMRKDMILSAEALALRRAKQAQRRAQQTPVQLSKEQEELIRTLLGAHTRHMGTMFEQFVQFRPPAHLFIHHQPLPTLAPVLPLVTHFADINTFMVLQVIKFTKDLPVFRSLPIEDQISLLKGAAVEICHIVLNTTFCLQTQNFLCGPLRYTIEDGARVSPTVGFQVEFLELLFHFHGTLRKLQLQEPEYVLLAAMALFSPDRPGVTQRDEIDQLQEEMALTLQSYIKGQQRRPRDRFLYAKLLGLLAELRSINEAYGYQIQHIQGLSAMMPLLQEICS
# Outline: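 Cell line: HepG2 double-stable for hCAR and CYP2B6-2.2kb reporter. Agonist: CITCO, 50 nM final. Compounds: 15 concentrations, 24 h, 37 C. Detection: ONE-Glo luminescence.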
# [8] = biological target: Androgen receptor (Homo sapiens) (UniProt P10275); test: qHTS assay to identify small molecule antagonists of the androgen receptor (AR) signaling pathway using the MDA cell line in the presence of 0.5 nM R1881 (AID 1259243); also: nearly all actives have a fitted effect of over 50% in size; also: potency is read from the fitted curve at half-maximal effect
# Chain of UniProt P10275 (P10275 whole entry, looked up): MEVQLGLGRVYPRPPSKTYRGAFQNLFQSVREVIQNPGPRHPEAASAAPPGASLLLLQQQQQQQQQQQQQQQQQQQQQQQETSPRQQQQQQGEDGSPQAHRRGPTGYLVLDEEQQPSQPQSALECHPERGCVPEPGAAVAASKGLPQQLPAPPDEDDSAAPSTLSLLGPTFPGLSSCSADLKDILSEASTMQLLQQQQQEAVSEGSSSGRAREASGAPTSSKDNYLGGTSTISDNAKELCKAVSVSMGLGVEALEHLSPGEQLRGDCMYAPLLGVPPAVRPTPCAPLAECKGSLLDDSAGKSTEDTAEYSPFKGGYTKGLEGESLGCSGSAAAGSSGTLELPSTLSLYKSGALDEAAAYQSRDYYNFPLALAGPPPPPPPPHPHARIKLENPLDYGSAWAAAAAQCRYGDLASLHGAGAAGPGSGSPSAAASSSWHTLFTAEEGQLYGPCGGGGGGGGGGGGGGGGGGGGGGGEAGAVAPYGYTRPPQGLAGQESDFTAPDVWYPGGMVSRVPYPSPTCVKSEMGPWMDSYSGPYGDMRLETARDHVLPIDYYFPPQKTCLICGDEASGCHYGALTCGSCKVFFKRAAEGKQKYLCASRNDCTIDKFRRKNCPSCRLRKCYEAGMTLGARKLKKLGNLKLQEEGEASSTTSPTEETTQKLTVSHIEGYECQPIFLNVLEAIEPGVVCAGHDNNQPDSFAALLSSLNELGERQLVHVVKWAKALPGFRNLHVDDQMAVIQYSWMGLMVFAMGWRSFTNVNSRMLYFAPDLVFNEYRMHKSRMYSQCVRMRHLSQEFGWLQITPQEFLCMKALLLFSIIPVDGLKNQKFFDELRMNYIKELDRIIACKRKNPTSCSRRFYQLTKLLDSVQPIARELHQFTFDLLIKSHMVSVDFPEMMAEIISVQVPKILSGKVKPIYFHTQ
# Outline: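 Reporter cells cultured without CO2 receive test chemicals, then 0.5 nM R1881 final; after 16 hr at 37C, ONE-Glo is added and light output recorded.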
# [9] = qHTS assay to identify small molecule antagonists of the androgen receptor (AR) signaling pathway - cell viability counter screen (AID 743033; also: nearly all actives have a fitted effect of over 45% in size; also: potency is read from the fitted curve at half-maximal effect; as to activity change, negative = cytotoxicity: % is scaled to controls: 0 for no effect and ±100 for the full control effect); conditions: AR-bla HEK293 viability, CellTiter-Glo luminescence, 16 h; activity change, negative = cytotoxicity: at 58.5 µM (top of the series) unless noted
# [10] = biological target: Androgen receptor (Homo sapiens) (UniProt P10275); test: qHTS assay to identify small molecule antagonists of the androgen receptor (AR) signaling pathway (AID 743035; active = well fitted inhibition curve with a large enough effect in the signal ratio in the repeat runs, not every such curve was filed as active; inconclusive = weak or mixed curves, or effect the other way; inactive = no such curve, though single readings can be large or run the other way; the % refers to the signal ratio; also: potency is read from the fitted curve at half-maximal effect; as to activity change, negative = inhibition: % is scaled to controls: 0 for no effect and ±100 for the full control effect); conditions: HEK293 AR-UAS-bla, R1881-stimulated, beta-lactamase FRET, 16 h; activity change, negative = inhibition: at 58.5 µM (top of the series) unless noted
# Outline: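 Beta-lactamase FRET read (2 h RT incubation with LiveBLAzer B/G) following 16 h of compound plus R1881 treatment of AR-UAS-bla HEK293 cells, which had been pre-incubated 4 h at 37C.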
# [11] = biological target: Androgen receptor (Homo sapiens) (UniProt P10275); test: qHTS assay to identify small molecule agonists of the androgen receptor (AR) signaling pathway (AID 743036; active = well fitted activation curve with a large enough effect in the signal ratio in the repeat runs, with a control signal flat, not every such curve was filed as active; inconclusive = weak or mixed curves, or effect the other way; inactive = no such curve, though single readings can be large or run the other way; the % refers to the signal ratio; also: % is scaled to controls: 0 for no effect and ±100 for the full control effect); conditions: HEK293 AR-UAS-bla GripTite, beta-lactamase FRET ratio, 16 h; activation: at 62.4 µM (top of the series) unless noted
# Outline: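 Following a 4 h settling period, AR-UAS-bla HEK293 cells were dosed with compounds for 16 h at 37C. A 2 h room-temperature incubation with LiveBLAzer B/G FRET substrate preceded the fluorescence measurement.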
# [12] = A CellTox Green Cytotoxicity Assay to monitor cytotoxicity in HepG2 cells - 0 hour (AID 1224882); also: nearly all actives have a fitted effect of over 35% in size; also: potency is read from the fitted curve at half-maximal effect; as to Cytotoxicity: % is scaled to controls: 0 for no effect and ±100 for the full control effect
# Outline: as §1
# [13] = qHTS assay to identify small molecule antagonists of the sonic hedgehog signaling (Shh) pathway - cell viability counter screen (AID 1259367); also: nearly all actives have a fitted effect of over 55% in size; also: potency is read from the fitted curve at half-maximal effect
# Outline: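 After a 4 hr settling period, 3T3 Gli1-Luc cells were treated with DMSO-dissolved chemicals and conditioned medium, kept 24 hr at 37C in 5% CO2, and assayed for viability by CellTiter-Fluor fluorescence following 1 hr reagent incubation.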
# [14] = qHTS assay to identify small molecule that activate the aryl hydrocarbon receptor (AhR) signaling pathway - cell viability counter screen (AID 743086)
# Outline: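 HepG2-AhR-luc (HG2L7.5c1) cells, 4000/well, were preincubated 5 h at 37C, exposed to compound in qHTS format for 24 hr at 37C, then given CellTiter-Fluor for 30 min; viability was read as fluorescence in the reporter wells.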
# [15] = qHTS assay to identify small molecule antagonists of the androgen receptor (AR) signaling pathway using the MDA cell line in the presence of 0.5 nM R1881 - cell viability counter screen (AID 1259242)
# Outline: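 Viability of MDA-kb2 cells was multiplexed with the luciferase AR readout; after 16 hr with compounds and R1881 at 0.5 nM final, CellTiter-Fluor fluorescence was recorded.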
# [16] = qHTS assay to identify small molecule antagonists of the thyroid receptor (TR) signaling pathway (AID 743065); also: % is scaled to controls: 0 for no effect and ±100 for the full control effect; nearly all actives have a fitted effect of over 55% in size
# Outline: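 GH3.TRE-Luc rat pituitary cells carrying two TR response elements driving luciferase were plated for 4 h, given compound plus 1 nM T3 (final), and incubated 23.5 h at 37 C. ONE-Glo luminescence measured reporter inhibition; CellTiter-Fluor fluorescence tracked cytotoxicity.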
# [17] = qHTS assay to identify small molecule antagonists of the estrogen receptor beta (ER-beta) signaling pathway - cell viability counter screen (AID 1259382);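 also: HEK293T cells carrying ER-beta-UAS-bla reporter stimulated with estradiol; % is scaled to controls: 0 for no effect and ±100 for the full control effect; nearly all actives have a fitted effect of over 55% in size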
# Outline: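 In this multiplexed counter screen, cells were seeded at 2,000 per well in medium with 2% charcoal-stripped FBS and incubated 6 hr before compound and 1nM final E2 were added. Sixteen hours later, ATP-based luminescence reported viability.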
# [18] = A CellTox Green Cytotoxicity Assay to monitor cytotoxicity in HepG2 cells - 32 hour (AID 1224883); also: potency is read from the fitted curve at half-maximal effect; nearly all actives have a fitted effect of over 50% in size
# Outline: as §1
# [19] = biological target: Voltage-gated inwardly rectifying potassium channel KCNH2 (Homo sapiens) (UniProt Q12809); test: Human Ether-a-go-go-Related Gene (hERG) channel small molecule antagonists: fluorescence cell-based qHTS assay (AID 1671200); also: potency is read from the fitted curve at half-maximal effect; nearly all actives have a fitted effect of over 50% in size
# Chain of UniProt Q12809 (Q12809 whole entry, looked up): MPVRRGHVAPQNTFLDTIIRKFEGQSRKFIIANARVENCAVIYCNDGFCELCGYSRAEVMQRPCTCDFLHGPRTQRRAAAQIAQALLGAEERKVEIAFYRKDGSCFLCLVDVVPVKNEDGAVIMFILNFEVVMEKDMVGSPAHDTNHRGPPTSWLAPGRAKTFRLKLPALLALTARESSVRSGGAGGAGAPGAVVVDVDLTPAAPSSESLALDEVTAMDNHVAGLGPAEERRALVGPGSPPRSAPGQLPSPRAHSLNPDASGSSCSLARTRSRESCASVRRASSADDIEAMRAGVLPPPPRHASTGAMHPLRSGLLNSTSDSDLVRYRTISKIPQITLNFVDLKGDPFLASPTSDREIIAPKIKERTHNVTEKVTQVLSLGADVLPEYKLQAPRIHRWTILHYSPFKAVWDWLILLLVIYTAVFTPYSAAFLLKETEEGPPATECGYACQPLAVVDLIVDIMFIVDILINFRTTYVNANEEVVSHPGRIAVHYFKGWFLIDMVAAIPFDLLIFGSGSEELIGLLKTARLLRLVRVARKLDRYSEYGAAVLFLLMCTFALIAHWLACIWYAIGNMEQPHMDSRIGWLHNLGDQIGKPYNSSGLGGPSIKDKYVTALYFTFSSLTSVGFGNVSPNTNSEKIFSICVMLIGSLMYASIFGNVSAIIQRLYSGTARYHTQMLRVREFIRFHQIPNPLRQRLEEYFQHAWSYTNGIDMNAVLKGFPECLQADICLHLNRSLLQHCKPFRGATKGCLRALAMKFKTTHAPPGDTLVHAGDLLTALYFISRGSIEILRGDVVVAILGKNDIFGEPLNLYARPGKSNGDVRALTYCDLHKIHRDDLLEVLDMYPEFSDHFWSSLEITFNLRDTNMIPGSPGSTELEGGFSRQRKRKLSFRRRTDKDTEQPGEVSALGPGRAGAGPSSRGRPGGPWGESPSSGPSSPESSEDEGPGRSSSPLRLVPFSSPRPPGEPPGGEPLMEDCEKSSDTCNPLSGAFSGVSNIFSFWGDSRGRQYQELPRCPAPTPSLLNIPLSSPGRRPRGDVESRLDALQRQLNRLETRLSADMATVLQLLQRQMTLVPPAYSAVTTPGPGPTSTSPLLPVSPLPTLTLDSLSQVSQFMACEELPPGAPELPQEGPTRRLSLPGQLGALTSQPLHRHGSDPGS
# Outline: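 In this thallium-flux screen, overnight-cultured U2OS cells bearing the channel are dye-loaded in darkness for an hour, rested 10 min at room temperature, and then monitored kinetically at 480/540 nm for two minutes post-stimulus.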
# Tags tell the direction and shape of the fitted curve or compound fluorescence and quenching.
compound,measurement,setting,value
CC(C[N+](C)(C)C)OC(N)=O (centres undefined),Potency,[1],inactive
CC1(COc2ccc(CC3SC(=O)NC3=O)cc2)CCCCC1 (centres undefined),Potency,[2],"inconclusive [cytotoxic, single point]"
same,Potency,[3],"inconclusive [cytotoxic, partial curve]"
same,Potency,Aromatase (Homo sapiens),inconclusive [inhibitor]
CC(C)(C)NC[C@H](O)COc1nsnc1N1CCOCC1,Potency,[1],inactive
O=c1cc[nH]c(=S)[nH]1,Potency,[4],"inconclusive [activator, partial curve, poor fit]"
same,Potency,[5],inactive
CN1CCCC1,Potency,[6],inactive
same,Potency,[5],"inconclusive [activator, single point]"
CC1(C)OC(=O)Nc2ccc(Br)cc21,Potency,[7],"inconclusive [inhibitor, single point]"
same,Potency,[8],active: 9.44 µM
CC1(C)CC(O)CC(C)(C)N1[O],Potency,[9],"inconclusive [cytotoxic, full curve, poor fit]"
CC(=O)OC(C(=O)c1ccccc1)c1ccccc1 (centres undefined),Potency,[10],inactive
same,Potency,[11],inactive
N#Cc1ccc(CC(=O)c2cccc(C(F)(F)F)c2)cc1,Potency,[2],active: 48.6 µM
CCc1c(Br)c(Br)c(Br)c(Br)c1Br,Potency,[8],inactive
Cc1scc2c1N(C(=O)CN1CCN(C)CC1)c1ccccc1NC2=O,Potency,[7],"inconclusive [inhibitor, single point]"
CC1=CC(=O)[C@H]2C[C@@H]1C2(C)C,Potency,[9],inactive
CS(=O)(=O)O,Potency,Aromatase (Homo sapiens),inactive
C=CN1CCCCCC1=O,Potency,[6],inactive
O=C(c1ccccc1)c1cccc(O)c1,Potency,[10],"inconclusive [rising, partial curve, poor fit]"
same,Potency,[7],inactive
C=COC(=O)C(C)(CC)CCC(C)C (centres undefined),Potency,[7],inactive
O=Cc1ccccc1[N+](=O)[O-],Potency,[6],inactive
same,Potency,[12],inactive
same,Potency,[13],inactive
O=C(O)c1c(Cl)ccc(Cl)c1Cl,Potency,[14],inactive
CCCCCCC(=O)O,Potency,[15],inactive
CCCCCCC(O)CO (centres undefined),Potency,[15],inactive
CC(=O)Nc1ccc(/C=N/NC(N)=S)cc1,Potency,[7],"inconclusive [inhibitor, partial curve]"
same,Potency,[12],inactive
N#Cc1ccc(C(c2ccc(C#N)cc2)n2cncn2)cc1,Potency,[2],inactive
same,Potency,[3],inactive
same,Potency,[16],inactive
same,Potency,[15],inactive
same,Potency,[8],"inconclusive [inhibitor, partial curve]"
same,Potency,[17],inactive
CCCCCCCOC(C)=O,Potency,[5],"inconclusive [activator, partial curve, poor fit]"
CCCCCCCC(=O)N(C)C,Potency,[18],"inconclusive [activator, single point]"
CCOC(=O)C1=NOC(c2ccccc2)(c2ccccc2)C1,Potency,[13],inactive
same,Potency,[19],"inconclusive [inhibitor, partial curve]"
CC(CN=Cc1ccccc1O)N=Cc1ccccc1O (centres undefined),Potency,[9],inactive
same,Potency,[1],inactive
same,Potency,[17],inactive
COCCCOc1cc(C[C@@H](C[C@H](N)[C@@H](O)C[C@H](C(=O)NCC(C)(C)C(N)=O)C(C)C)C(C)C)ccc1OC,Potency,[14],inactive
same,Potency,[13],"inconclusive [cytotoxic, single point]"
CCOC(=O)Cc1cccc2ccccc12,Potency,[1],"inconclusive [activator, single point]"
same,Potency,[12],"inconclusive [activator, single point]"
O=C(O)c1cccc(C(=O)O)n1,Potency,[15],inactive
C1CCC2=NCCCN2CC1,Potency,[13],inactive
CCC(CC)CO,Potency,[10],inactive
same,activation,[11],inconclusive: 10.5%
COc1cc(Cl)c(OC)cc1N,Potency,[2],inactive
O=C(Cl)c1ccccc1[N+](=O)[O-],Potency,[11],inactive
same,Potency,[13],inactive
same,Potency,[17],inactive
CCc1ccc(C=O)cc1,Potency,[3],inactive
Cn1c(=O)c2c(ncn2CC(O)CO)n(C)c1=O (centres undefined),Potency,[1],"inconclusive [activator, single point]"
same,Potency,[18],"inconclusive [activator, single point]"
